Results taken from PubChem BioAssay AID1645882 (National Center for Advancing Translational Sciences (NCATS), 2021).
About 120 (0.75%) of roughly 16,000 compounds were called active. Another 4% or so got no clear call; they are omitted. Calls follow the shape of the dose curve; as a rule, active = well fitted inhibition curve with a large enough effect; inconclusive = small, poorly fitted or top-dose-only effect; inactive = no such curve, though single readings can be large or run the other way. The list shows a part of the results.

target: Rap guanine nucleotide exchange factor 3 (Homo sapiens) (UniProt O95398); experiment: Validation qHTS for antagonist of cAMP-regulated guanine nucleotide exchange factor 3 (EPAC1); conditions: EPAC1 Rap1B-BODIPY-GDP exchange, fluorescence; series mostly up to 150 µM; activity change, negative = inhibition: at the top concentration; also: nearly all actives have a fitted effect of over 75% in size
From the text: Assay Provider (PI): Xiaodong Cheng Ph.D.
The University of Texas Medical Branch, […], TX
In multi-cellular eukaryotic organisms, the effects of cAMP are transduced by two ubiquitously-expressed intracellular cAMP receptors, the classic protein kinase A/cAMP-dependent protein kinase (PKA/cAPK) and the more recently discovered exchange protein directly activated by cAMP/cAMP-regulated guanine nucleotide exchange factor (EPAC/cAMP-GEF). Both PKA and EPAC are ubiquitously expressed in all tissues, and an increase in intracellular cAMP levels will lead to the activation of both PKA and EPAC. Therefore, careful dissections of the individual role and relative contribution of EPAC and PKA within the overall cAMP signaling in various model systems are critical for further elucidating the mechanism of cAMP signaling. To date no EPAC-specific antagonists and agonist, as well as isoform-specific agonists have been reported, and developing EPAC-specific pharmacological probes to determine the physiological functions that EPAC play in the overall cAMP-mediated signaling remains a major challenge within the research field. Furthermore, identified regulators of EPAC may lead to new mechanism-based therapeutic strategies specifically targeting the EPAC / cAMP-signaling components as EPAC has been implicated to play important roles in major human pathological conditions such as diabetes, heart disease, and cancer.
This qHTS will be used to screen the Molecular Libraries Small Molecule Repository (MLSMR) as a concentration-titration series using the NCGC unique quantitative screening (qHTS) platform to find activators for EPAC1. In addition, this assay will also be used as a counterscreen for the EPAC2 qHTS. This fluorescent based assay is developed and validated for EPAC1 that measures exchange using EPAC effector Rap1 complex with BODIPY-GDP, a GDP analog with a tethered fluorophores. Activators are identified by monitoring the change in fluorescence signal as the exchanged free BODIPY-GDP has a reduced fluorescence compared to Rap1-bound BODIPY-GDP. Increase in signal (activation) is the desired outcome for the EPAC1 agonist while no activity in this assay is desired for the EPAC2 agonist counterscreen.
[1] de Rooij, J., Zwartkruis, F. J., Verheijen, M. H., Cool, R. H., Nijman, S. M., Wittinghofer, A., and Bos, J.L. (1998) Nature 396, 474-477.
Briefly, three uL of reagents (100 nM EPAC1, 250 nM RAP1B-BODIPY-GDP, 50 uM GDP) were dispensed into a 1536-well Greiner black solid-bottom medium binding assay plate. Controls and test compounds (23 nL) were transferred to the plate via a Kalypsys pin tool equipped with a 1536-pin array. The plates were centrifuged at 1,000 rpm for 15 seconds followed by 5 minute incubation at room temperature. The assay plates were read at 5 minute intervals for 30 minutes in the ViewLux plate reader using 480nm excitation and 540nm emission filters. The results were normalized to the […] positive control ATA and DMSO.

UniProt O95398, sequence (O95398 whole entry, looked up): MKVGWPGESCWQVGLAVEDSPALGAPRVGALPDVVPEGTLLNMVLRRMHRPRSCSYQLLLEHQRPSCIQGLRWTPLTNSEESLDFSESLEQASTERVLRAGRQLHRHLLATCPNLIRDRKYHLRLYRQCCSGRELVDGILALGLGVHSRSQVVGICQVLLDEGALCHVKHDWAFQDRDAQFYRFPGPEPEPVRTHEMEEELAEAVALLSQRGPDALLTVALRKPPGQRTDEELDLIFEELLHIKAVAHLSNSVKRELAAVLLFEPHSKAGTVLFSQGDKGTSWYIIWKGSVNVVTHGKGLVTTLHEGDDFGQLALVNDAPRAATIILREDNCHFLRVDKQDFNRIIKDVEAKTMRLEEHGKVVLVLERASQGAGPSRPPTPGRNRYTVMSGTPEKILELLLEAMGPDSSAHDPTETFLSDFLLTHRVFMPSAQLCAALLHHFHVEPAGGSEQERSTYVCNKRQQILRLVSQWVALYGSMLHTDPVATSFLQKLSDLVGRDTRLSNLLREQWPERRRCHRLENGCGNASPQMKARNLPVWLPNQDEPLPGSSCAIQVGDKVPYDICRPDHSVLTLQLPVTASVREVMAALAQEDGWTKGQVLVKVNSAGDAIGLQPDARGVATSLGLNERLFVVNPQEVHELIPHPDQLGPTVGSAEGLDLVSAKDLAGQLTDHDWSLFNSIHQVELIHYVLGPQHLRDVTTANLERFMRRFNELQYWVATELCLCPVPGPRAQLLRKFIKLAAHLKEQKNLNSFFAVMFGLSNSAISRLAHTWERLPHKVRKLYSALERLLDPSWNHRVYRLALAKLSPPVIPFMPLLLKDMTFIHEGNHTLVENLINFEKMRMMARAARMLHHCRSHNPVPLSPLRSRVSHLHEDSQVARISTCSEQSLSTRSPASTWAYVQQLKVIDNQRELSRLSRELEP

Activity change, negative = inhibition, inactive:
O=c1cc(-c2cccc(O)c2O)oc2ccccc12 -21.7%
Cc1cn(C2CC(N=[N+]=[N-])C(CO)O2)c(=O)[nH]c1=O (centres undefined) 25.7%
N[C@H](Cc1ccccc1)C(=O)O 19.1%
COc1ccc(C2c3cc(OC)c(OC)cc3Cc3c4cc(OC)c(OC)cc4cc[n+]32)cc1OC (centres undefined) 7.29%
Cc1ncc2c(c1CNS(=O)(=O)N(C)C)CCN(C(=O)c1c(F)cccc1F)C2 12%
COc1ccccc1CNc1ncnc2ccc(-c3ccccc3CN(C)C)cc12 9.84%
Nc1c2c(nc3c1CCC3)CCCC2 -3.38%
COCC(=O)N1CCC2(CCN(Cc3nccs3)CC2)CC1 16.1%
Cc1c(N)nc(C(CC(N)=O)NCC(N)C(N)=O)nc1C(=O)NC(C(=O)NC(C)C(O)C(C)C(=O)NC(C(=O)NCCc1nc(-c2nc(C(=O)NCCCN[C@@H](C)c3ccccc3)cs2)cs1)C(C)O)C(O[C@@H]1O[C@@H](CO)[C@@H](O)[C@H](O)[C@@H]1O[C@H]1O[C@H](CO)[C@@H](O)[C@H](OC(N)=O)[C@@H]1O)c1cnc[nH]1 (some centres undefined) 24.8%
Cc1noc(C)c1C(=O)N1CCC2(CC1)CN(c1ccccc1)C2 15.9%
COc1ccc(/C=C/C(=O)c2ccc(C)s2)cc1 -0.912%
COC(=O)[C@H](C)NS(=O)(=O)C1CC1 -8.7%
CN(CCOc1ccc(NS(C)(=O)=O)cc1)CCc1ccc(NS(C)(=O)=O)cc1 17.9%
COc1ccc(NC(=O)N2CCC3(CC2)CCN(C(=O)c2ccco2)CC3)cc1 25.8%
COc1cc(=O)n2c(c1C(=O)NC(C)c1ccco1)CCN(C(=O)c1ccnc(Cl)c1)CC2 (centres undefined) 12.4%
COc1cc(C2c3cc4c(cc3C(OC3OC5COC(C)O[C@@H]5C(O)C3O)C3COC(=O)C23)OCO4)cc(OC)c1O (some centres undefined) 11.2%
C#C[C@]1(O)CC[C@H]2[C@@H]3CCc4cc(OC)ccc4[C@H]3CC[C@@]21C 14%
CC(N)(Cc1ccc(O)cc1)C(=O)O (centres undefined) 7.97% [at 75.8 µM]
CC(C)NCC(O)c1ccc(NS(C)(=O)=O)cc1 (centres undefined)
O=C(Oc1ccccc1)N1CCC2(CC1)CCN(c1ccncc1)CC2 15.1%
CC1=C(C)C(=O)C(CCCCC#CCCCC#CCO)=C(C)C1=O
O=c1c(-c2ccc(F)cc2)nc2cnc(Nc3ccccc3)nc2n1C1CC1 6.07%
CN(C)CCCCSC(=N)N
COC(=O)c1ccc(-c2cccc3c2OC(CNC(=O)/C=C/c2ccc(OC)c(OC)c2)C3)nc1 (centres undefined) -8.39%
COc1cc(C=O)ccc1O
O=c1c(-c2ccccc2)nc2cnc(N3CCNCC3)nc2n1C1CC1 23.5%
CC(C)c1c(C(=O)NCC(C)(C)N2CCOCC2)cnn1-c1nccc(-c2cccs2)n1 13%
COC(=O)c1ccc2nc3c(cc2c1)[C@@H]1CCN2C(=O)CCC[C@H](C3)[C@H]12 20.6%
CCCN(C/C=C\I)[C@@H]1CCc2cccc(O)c2C1 0.679%
Cc1nc2cnc(N3CCNCC3)nc2n(Cc2cccs2)c1=O -0.201%
O=C(C(=O)N1CCOc2ccc(CN3CCN(Cc4ccccn4)CC3)cc2C1)c1ccccc1 6.82%
CCCCCCCCCCCCCCCC[N+](C)(C)CCN(Cc1ccc(OC)cc1)c1ncccn1 -0.628% [at 75.8 µM]
Cc1cccc(CNc2nc(-c3ccccc3CN(C)C)nc3ccccc23)c1 25.4%
O=S1(=O)CCOC[C@H](CC2CCCCC2)N1Cc1cccc(F)c1 16.4%
O=C(O)P(=O)(O)O -8.97%
COc1ccc(-n2c(=O)cnc3cnc(Oc4cccc(Cl)c4)nc32)cc1 7.33%
CC(C)C(NC(=O)c1ccccn1)c1nnc2n1CCN(Cc1ccc3ccccc3c1)CC2 (centres undefined) 5.18%
CS(=O)(=O)N1CCC2(CC1)CN(C(=O)Nc1ccccc1)C2 5.38%
COc1ccccc1CCn1c(=O)c(-c2ccc(F)c(F)c2)nc2cncnc21 -1.95%
CCN(CC)CCCC(C)Nc1c2ccc(Cl)cc2nc2ccc(OC)cc12 (centres undefined)
OCC1OC(Oc2cccc3cccnc23)C(O)C(O)C1O (centres undefined) -4.88%
COc1ccccc1CNc1nc(-c2c(C)noc2C)nc2ccccc12 -14.8%
CC(C)=CCn1cnc2c1c(=O)n(C)c(=O)n2C 18.9%
CN(C)CCCSc1ccccc1NC(=O)/C=C\c1ccccc1 9.49%
COc1ccccc1-c1nc(NCc2ccccc2)c2ccccc2n1 16.4%
Cc1ncc2c(c1CNS(=O)(=O)N(C)C)CCN(C(=O)/C=C/c1ccccc1F)C2 9.07%
O=C(O)[C@@H]1C[C@@H](C(=O)O)N1
Fc1ccc(Nc2ccnc(-c3ccccc3C(F)(F)F)n2)cc1 -23.8%
COc1ccc(-c2nc3cnc(OC)nc3n(CCC#N)c2=O)cc1 -8.56%
C/C=C(\C)C(=O)O[C@H]1C[C@@]2(C)CCC(C(C)C)C2(O)CC[C@@]1(C)O (some centres undefined) 5.42%
CNc1cc(NS(=O)(=O)c2ccc(N)cc2)nc(NC)n1
FC(F)(F)c1ccccc1-c1cc(N2CCNCC2)ncn1 19.8%
CC(=O)OCC1OC(n2c(Br)nc3c(=O)[nH]c(N)nc32)C(OC(C)=O)C1OC(C)=O (centres undefined) 11.9%
CC(C)(C)CC(=O)OCC(=O)[C@@]12OC(C)(C)O[C@@H]1C[C@H]1[C@@H]3CCC4=CC(=O)C=C[C@]4(C)[C@@]3(F)[C@@H](O)C[C@@]12C 26.8%
CCN1C(=O)CC(CC(=O)N2CCC(c3nc4ccc(F)cc4[nH]3)CC2)(c2ccccc2C)C1=O (centres undefined) -9.42%
COc1ccc(Oc2ncc3nc(-c4ccc(OC)cc4)c(=O)n(Cc4cccs4)c3n2)cc1 23.6%
CS(=O)(=O)N1CCC[C@@]2(CCN(C(c3ccccc3)c3ccccc3)C2)C1 -3.49%
Cc1ccc(S(=O)(=O)/C=C\C#N)cc1 13.2%
CC(C)NC(=O)N1CCC2(CC1)CCN(S(C)(=O)=O)CC2 4.91%
Cc1c(C(=O)NCCCc2ccncc2)cnn1-c1nccc(-c2ccccc2F)n1 20.5%
Cc1ccccn1 5.43%
NS(=O)(=O)c1ccc(C(=O)O)cc1 21.3%
Cc1noc(C)c1-c1cncnc1NCCN1CCOCC1 19%
CCCCCCCCCCCCC/C=C/[C@@H](O)[C@H](CO)N(C)C 14% [at 15.3 µM]
O=C1CC[C@@H](CN(Cc2cccnc2)C2CCN(c3ccc(NC(=O)c4cnccn4)cc3)CC2)N1 -4.84%
CCNc1ncc2nc(-c3cccs3)c(=O)n(Cc3cccc(OC)c3)c2n1 5.8%
Cc1cccc(CNc2ccnc(-c3ccoc3)n2)c1 17.2%
Cc1ncc2c(c1CNC(=O)c1cncs1)CCN(C(=O)c1cccc(-c3cccc(F)c3)c1)C2 6.39%
OCl 9%
CCC1CN(CCNC(=O)c2ccc3c(c2)OCCO3)Cc2cc(OC)ccc2O1 (centres undefined) 13.7%
O=C(Oc1ccccc1)N1CCC2(CC1)CN(c1ccccn1)C2 -1.95%
O=C(c1csnn1)N1CCC[C@@]2(CCN(c3ccccn3)C2)C1 2.05%
CC(=O)c1ccc2oc3ccccc3c(=O)c2c1 -1.3%
CCN(CC)CCn1c(=O)c(Cc2ccc(OC)cc2)nc2ccccc21 31%
COc1cc(OC)c2nc(-c3cc4c(c(OC)c3)OCCN(Cc3cn(C)nc3C)C4)cc(C)c2c1 7.66%
Cc1cc2c(c(-c3ccc(Cl)cc3)c1)OC(CNC(=O)Cc1c(C)noc1C)C2 (centres undefined) 2.29%
CCOc1ccccc1C(N)=O 2.6%
CSc1nnc(CCNC(=O)/C=C/c2cccc(F)c2)n1-c1ccc(F)cc1 -0.359%
CN(C)c1ncc2nc(-c3cc(F)cc(F)c3)c(=O)n(CCc3ccccc3)c2n1 -15.3%
COc1ccccc1-c1cncnc1N1CCN(C)CC1 3.1%
COC(=O)N1CCC2(CC1)CN(C(c1ccccc1)c1ccccc1)C2 -2.72%
COc1cc(C(=S)N2CCOCC2)ccc1O 4.23%
O=C1OC(c2ccc(O)cc2)(c2ccc(O)cc2)c2ccccc21
O=S1(=O)CCOCCCN1Cc1ccc(F)cc1 13.6%
COc1ccc2c(C)cc(=O)oc2c1 14.3%
C=C[C@@H]1c2cc(C)ccc2N(S(=O)(=O)c2ccc(C)cc2)[C@H](c2ccc(C(C)(F)F)cc2)C1(C#N)C#N 5.8%
CCn1c(-c2cccc(OC)c2)nc2cc(NC(C)=O)cc(C(=O)N3CCCC(C(C)=O)C3)c21 (centres undefined) -2.63%
O=C(Nc1cccc(F)c1)N1CC[C@@]2(CCCN(C(=O)c3ccncc3)C2)C1 16.6%
O=C(C[n+]1ccnc2ccccc21)c1ccc(Br)cc1 19.9%
CC(C)c1c(C(=O)N(C)C2CCN(C)CC2)cnn1-c1nccc(-c2ccco2)n1 12.2%
O=C(Nc1cccc(F)c1)N1CC[C@@]2(CCCN(C(=O)c3cc(C(F)(F)F)cc(C(F)(F)F)c3)C2)C1 -15%
COc1ccc(/C=N/NC(=O)c2ccncc2)cc1OC 15.6%
COc1ccc(O)c(CN2CCOc3c(cc(-c4cccc(OC)n4)cc3OC)C2)c1 10.1%
CC(C)(O)CCC(O)[C@@](C)(O)C1CC[C@]2(O)C3=CC(=O)C4CC(O)C(O)C[C@]4(C)C3CC[C@]12C (some centres undefined) -23.7%
COc1ccccc1-c1coc2cc(O)ccc2c1=O 12.8%
Oc1ccc(C2CNCCc3c2cc(O)c(O)c3Cl)cc1 (centres undefined)
COc1ccccc1CNc1ncnc2ccc(-c3c(C)noc3C)cc12 11.7%
CCC1CN(Cc2cccn2-c2ccccn2)Cc2cc(OC)ccc2O1 (centres undefined) 3.39%
CC(C(=O)O)c1cccc(Oc2ccccc2)c1 (centres undefined)
COC(=O)c1c(OCc2cccnc2)cc(=O)n2c1CCN(C(=O)c1c3c(nn1C)CCCC3)CC2 9.38%
C[C@@H]1CN(CCCn2c3ccccc3c3ccccc32)C[C@H](C)N1 14.3%
COC1=CC(C)C2CC3OC(=O)CC4C(C)=C(OC)C(=O)C([C@]2(C)C1=O)[C@]34C (some centres undefined) 8.1%
O=c1nc2ccccc2c2n1C[C@H](CN1CCN(c3ccccc3)CC1)N2 8.52%
CN1Cc2c(C(=O)OC(C)(C)C)ncn2-c2ccsc2C1=O -2.79%
